Laboratory results from patent US20240132582A1.

Key:
[1] = molecular target: mixture of hu-IL-36α, hu-IL-36β and hu-IL-36γ; experiment: cell-based or functional assay
[2] = molecular target: mixture of hu-IL-36α and hu-IL-36β; experiment: cell-based or functional assay

IC50, IL-8 secretion by primary adult human keratinocytes stimulated by a mixture of hu-IL-36α, hu-IL-36β and hu-IL-36γ [1]: 1.16 nM | IC50, IL-8 secretion by primary adult human keratinocytes stimulated by a mixture of hu-IL-36α and hu-IL-36β [2]: 0.44 nM
B1: mAb2.10/mAb6_2.7 multispecific common light chain antibody (bispecific antibody, human IgG1, lambda)
heavy 1: ELQLQESGPGLVKPSETLSLTCTVSGGSISDSSYYWGWIRQPPGKGLEWIGSIYYTGETYYAPSLKSRVTISVDTSKNQFSLKLSSVTAADTAVYYCARVRYGVGVPRHFDPWGQGTLVTVSSASTKGPSVFPLAPSSKSTSGGTAALGCLVKDYFPEPVTVSWNSGALTSGVHTFPAVLQSSGLYSLSSVVTVPSSSLGTQTYICNVNHKPSNTKVDKKV[human IgG1 Fc with changes cut from this listing]
heavy 2: ELQLQESGPGLVKPSETLSLTCTVSGGSITASNTYWGWIRQPPGKGLEWIGSIDYTGSTYYNPSLKSRVTISVDTSKNQFSLKLSSVTAADTAVYYCATGKYYETYLGFDVWGQGTLVTVSS[human IgG1 constant region with N297G T366W (EU numbers) cut from this listing]
light: ESVLTQPPSVSGAPGQRVTISCTGSSSNIGAHYDVHWYQQLPGTAPKLLIYGNDNRPSGVPDRFSGSKSGTSASLAITGLQAEDEADYYCQSYDYSLSGYVFGGGTKLTVLGQPKAAPSVTLFPPSSEELQANKATLVCLISDFYPGAVTVAWKADSSPVKAGVETTTPSKQSNNKYAASSYLSLTPEQWKSHKSYSCQVTHEGSTVEKTVAPTECS
